{
  "source": "the supplement of paper PMC11417369",
  "note": "± gives the standard deviation of the averaged measurements. This is one part of the list.",
  "data": [
    {"tested_on": "PfAP2-EXP AP2 domain (GST-tagged)", "test": "gcPBM binding intensity (ln(normalized median fluorescence intensity)); higher = stronger DNA binding", "summary_of_the_method": "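Using an Agilent 4 × 180k array, primer-extended double-stranded 36-bp intergenic genomic probes and negative controls were exposed for 1 h to GST-fused P. falciparum DNA-binding domains expressed in E. coli. Binding was carried out in 1× PBS with 1% milk, 0.2 mg/ml BSA, 0.5% salmon testes DNA and 0.03% Triton X-100, and protein was detected with Alexa488 anti-GST antibody and a 488 nm scan. Binding intensity is the highest Masliner-normalised natural-log median intensity across replicate spots of either probe orientation.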", "values": [
      {"sequence": "ATAGAACAATTCAGAAGTACATAAAAAGAAAAATTT [XGTACX_site3015]", "gcPBM binding intensity (ln)": "8.74 ± 0.48"},
      {"sequence": "TTGGATGATTAAGGGGGACACACGTTTATATATTTA [CACACA_site338]", "gcPBM binding intensity (ln)": "9.53 ± 0.46"},
      {"sequence": "ATATATTTTAATGATACACACAAGAAATAAAATTAC [CACACA_site5671]", "gcPBM binding intensity (ln)": "8.71 ± 0.42"},
      {"sequence": "TTTTGTGATCTTACCACCTTTCATAATATTAATAAA [GTGCAC_negctrl_site360]", "gcPBM binding intensity (ln)": "8.61 ± 0.31"},
      {"sequence": "TTTCACAAATGATATAGTACTTTTTATTATTAACAT [XGTACX_site7976]", "gcPBM binding intensity (ln)": "8.44 ± 0.4"},
      {"sequence": "ACTTTTTTAATGTTACGTACACATAAATAATAATTA [XGTACX_site8092]", "gcPBM binding intensity (ln)": "8.785 ± 0.007"},
      {"sequence": "TAAAAAAAAAAAAAAGTACACACTTATAAAATATTA [CACACA_site872]", "gcPBM binding intensity (ln)": "8.37 ± 0.5"},
      {"sequence": "ATATATTTTTTGAATACACACATATTATATGTAATA [CACACA_site1256]", "gcPBM binding intensity (ln)": "8.46 ± 0.53"},
      {"sequence": "GTTACACCAACAAACACACACACACCGACACCCAAA [CACACA_site5361]", "gcPBM binding intensity (ln)": "8.54 ± 0.44"},
      {"sequence": "AAATGTAAAATTTTATGTACATATATTTATATAATA [XGTACX_site3737]", "gcPBM binding intensity (ln)": "8.55 ± 0.19"},
      {"sequence": "ACAAATGAGATTATATGTACACATAACAAATTTACA [XGTACX_site3496]", "gcPBM binding intensity (ln)": "8.6 ± 0.42"},
      {"sequence": "TTTATTTATTTAATTACACACGAACATATAACCATT [CACACA_site7952]", "gcPBM binding intensity (ln)": "8.6 ± 0.41"},
      {"sequence": "ATGTTTTATAAAAGGCGTACACATATATTTAAGTAA [XGTACX_site6231]", "gcPBM binding intensity (ln)": "8.81 ± 0.3"},
      {"sequence": "AAATTGGGGCTTGTTACACACTTAGTGTGAGTTCTA [CACACA_site6417]", "gcPBM binding intensity (ln)": "8.7 ± 0.49"},
      {"sequence": "ATTTATAATATGTATACACACACATATATAAATATA [CACACA_site8729]", "gcPBM binding intensity (ln)": "8.44 ± 0.33"},
      {"sequence": "TATAATCATAAATACACACACATATATATATATATA [CACACA_site5224]", "gcPBM binding intensity (ln)": "10.2 ± 0.42"},
      {"sequence": "TTCTCATCCTTACATACACACACATATATATATATA [CACACA_site7914]", "gcPBM binding intensity (ln)": "10.3 ± 0.11"},
      {"sequence": "GTTCAATTATTTTTATGTACATATATTTTTTTCTTT [XGTACX_site2505]", "gcPBM binding intensity (ln)": "9.06 ± 0.31"},
      {"sequence": "GTTATTAAAAACGGGTGTACACATATATAAATATAT [XGTACX_site1234]", "gcPBM binding intensity (ln)": "8.92 ± 0.47"},
      {"sequence": "TATTTATTATAAAAATTGTATAAAATAATAATGCTC [GTGCAC_negctrl_site456]", "gcPBM binding intensity (ln)": "8.38 ± 0.36"},
      {"sequence": "TTAACCTTTATATAATACGTATCATCCTCATATATA [CACACA_negctrl_site86]", "gcPBM binding intensity (ln)": "8.95 ± 0.61"},
      {"sequence": "TGTATATATTTGTGCACACCAAAGTTTGATTTTATT [CACACA_site1860]", "gcPBM binding intensity (ln)": "9.48 ± 0.12"},
      {"sequence": "ATATAAAATCAACAAAAAAAAAAAATATATATATAT [XGTACX_negctrl_site251]", "gcPBM binding intensity (ln)": "9.96 ± 0.26"},
      {"sequence": "TATTATAACTAAAAAAATCACATAAAATACTTTATT [CACACA_negctrl_site2]", "gcPBM binding intensity (ln)": "7.92 ± 0.38"},
      {"sequence": "TTATATTTTTTAATTACACACAATTCTTATAAATAT [CACACA_site7870]", "gcPBM binding intensity (ln)": "8.29 ± 0.49"},
      {"sequence": "AATATTTGCCTATGTTGTACTGACATTTTTTTAAGT [XGTACX_site6836]", "gcPBM binding intensity (ln)": "8.71 ± 0.33"},
      {"sequence": "TATATACACATGCGCACACACAAGTGGGAAATTTGG [CACACA_site6930]", "gcPBM binding intensity (ln)": "8.92 ± 0.4"},
      {"sequence": "TTAAGGATCCACGATACACACATATCATTCAACAAA [CACACA_site1924]", "gcPBM binding intensity (ln)": "8.44 ± 0.54"},
      {"sequence": "TAATAATCCACAAGCACACACACACCCATATATATA [CACACA_site1267]", "gcPBM binding intensity (ln)": "8.79 ± 0.28"},
      {"sequence": "ATATATAATATATGATGTACTTAATAATTTTTTTTT [XGTACX_site5715]", "gcPBM binding intensity (ln)": "8.17 ± 0.26"},
      {"sequence": "CATTTTATTTTAATATGTACTTAAAGAAAAAAAATT [XGTACX_site7670]", "gcPBM binding intensity (ln)": "8.33 ± 0.41"},
      {"sequence": "TTTTGACATTAATTACTATAGTGTTCTTATAAAATT [TGCATGCA_negctrl_site589]", "gcPBM binding intensity (ln)": "8.48 ± 0.47"},
      {"sequence": "AATACATAAAAATAAAAATAAAATATAACTAATATG [CACACA_negctrl_site186]", "gcPBM binding intensity (ln)": "8.54 ± 0.55"},
      {"sequence": "AATCGATAAAATGTTGTGCACATATTTTTATATTTA [GTGCAC_site9651]", "gcPBM binding intensity (ln)": "8.75 ± 0.13"},
      {"sequence": "AAAACTATAATGAATAGTACATAAAAATGGATATAT [XGTACX_site6056]", "gcPBM binding intensity (ln)": "8.76 ± 0.35"},
      {"sequence": "TTATACATATATTTAACACACATTTTATAAAGTGCC [CACACA_site1314]", "gcPBM binding intensity (ln)": "8.46 ± 0.42"},
      {"sequence": "TATCTTATTTTATCTCGTACATAAAATTAAAAAATT [XGTACX_site3636]", "gcPBM binding intensity (ln)": "8.43 ± 0.31"},
      {"sequence": "TTAAATTACTAATGTGCACACATACTAACGTTTAAA [CACACA_site3573]", "gcPBM binding intensity (ln)": "8.79 ± 0.12"},
      {"sequence": "TTTTATTTATTATTTACACACACGTAGGTGTCCATA [CACACA_site430]", "gcPBM binding intensity (ln)": "8.77 ± 0.33"},
      {"sequence": "AATATGTATCCATACACACATACATTTTATTTGCAA [CACACA_site874]", "gcPBM binding intensity (ln)": "8.65 ± 0.45"},
      {"sequence": "TTGTGTTTTATTATTTTATTATTACTATTATAATGT [GTGCAC_negctrl_site484]", "gcPBM binding intensity (ln)": "8.82 ± 0.42"},
      {"sequence": "TAAAAATGGGTATGTACACACTTTATTTTTAATACA [CACACA_site5404]", "gcPBM binding intensity (ln)": "8.36 ± 0.099"},
      {"sequence": "ATAAAACATAAATACATACACACATAATATATATTA [CACACA_site110]", "gcPBM binding intensity (ln)": "8.61 ± 0.45"},
      {"sequence": "AAGGAAGATATATACACACATACAAATATATATATA [CACACA_site2181]", "gcPBM binding intensity (ln)": "9.69 ± 0.34"},
      {"sequence": "ACATATTTAAAAACATGTACAAATATATTTATAATT [XGTACX_site661]", "gcPBM binding intensity (ln)": "8.38 ± 0.18"},
      {"sequence": "TGTAATGTTTACAACACACAAATTAGAAATACAAAA [CACACA_site6924]", "gcPBM binding intensity (ln)": "8.53 ± 0.44"},
      {"sequence": "AAGAAAAAATAAAGCACACAAATATTTTAAAAACAC [CACACA_site3325]", "gcPBM binding intensity (ln)": "9.06 ± 0.33"},
      {"sequence": "TTATTTATAATGTTGTGTACATATATGAATATACCA [XGTACX_site3111]", "gcPBM binding intensity (ln)": "8.38 ± 0.33"},
      {"sequence": "TATTTTACGTATTGTTGTACTTGAAACAAATATACA [XGTACX_site8778]", "gcPBM binding intensity (ln)": "8.57 ± 0.34"},
      {"sequence": "GATATATATACATGTGTGCACCATGCAACTTGTTTT", "gcPBM binding intensity (ln)": "9.19 ± 0.014"},
      {"sequence": "TTTTTTCAATTGGAAATTATTTTACAATGAAGGGTA [XGTACX_negctrl_site469]", "gcPBM binding intensity (ln)": "8.44 ± 0.48"},
      {"sequence": "TATAAACATAAATATACACACAAACATATATGTATT [CACACA_site8324]", "gcPBM binding intensity (ln)": "8.51 ± 0.42"},
      {"sequence": "AGACATATAATATATACACACATATATATATATATA [CACACA_site1066]", "gcPBM binding intensity (ln)": "10 ± 0.61"},
      {"sequence": "CGTTTCCCCAATGGTTGTACAATATATATATATATA [XGTACX_site8641]", "gcPBM binding intensity (ln)": "10.1 ± 0.31"},
      {"sequence": "ATACATATAATATATGCATGTACCAATCAAATATAT [TGCATGCA_site192]", "gcPBM binding intensity (ln)": "8.71 ± 0.33"},
      {"sequence": "TTATTCTAGTAGTGTGTGCGCATGGACAATGCAATA", "gcPBM binding intensity (ln)": "8.86 ± 0.28"},
      {"sequence": "TATATATCGTTATATACACACATGTATATAAAAAAT [CACACA_site7501]", "gcPBM binding intensity (ln)": "8.46 ± 0.27"}
    ]}
  ]
}
